By IC50 is meant the dose at which the fit gives 50% viability; where the fit passes the top or lowest dose, that dose stands as a limit. The AUC spans the tested range (256-fold, ending at the top dose) of the same fit; it is 1 without any effect and falls as sensitivity rises. For some assays here: A top dose marked as inferred comes from the curve model; the source does not state it. For some assays here: An entry number marks a drug with two screens in the source, which often give different values.
How the values were obtained:
Assay in all cases: Viability of human cancer cell lines after 72 h of drug (GDSC screen)
[1] = compound: NC(=O)Nc1sc(-c2ccc(F)cc2)cc1C(N)=O [TPCA-1]; conditions: top dose 20 µM
Description: (§1)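 Human cancer cell lines in 384-well plates, medium with 10% serum, drug for 72 h over a 256-fold dose range (nine 2-fold or five 4-fold steps up to the top dose). Adherent lines were fixed and stained with the nucleic acid dye Syto60, suspension lines read with resazurin; signal relative to control wells, capped at 0 and 100%. One two-parameter sigmoid per drug and line, fitted in a mixed model over all curves with the slope shared within a line.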

[2] = compound: CCCS(=O)(=O)Nc1ccc(F)c(C(=O)c2c[nH]c3ncc(Cl)cc23)c1F [PLX4720]; conditions: top dose 10 µM
Description: as §1

[3] = compound: CCc1nc(N)nc(N)c1-c1ccc(Cl)cc1 [Pyrimethamine]; conditions: top dose 20 µM; top dose inferred
Description: as §1

[4] = compound: CN1CCN(CCOc2cc(OC3CCOCC3)c3c(Nc4c(Cl)ccc5c4OCO5)ncnc3c2)CC1 [AZD-0530]; conditions: top dose 2 µM
Description: as §1

[5] = compound: C/C(=C\c1csc(C)n1)[C@@H]1C[C@@H]2O[C@]2(C)CCC[C@H](C)[C@H](O)[C@@H](C)C(=O)C(C)(C)[C@@H](O)CC(=O)O1 [Epothilone B]; conditions: top dose 0.032 µM; top dose inferred
Description: as §1

[6] = compound: CC(C)CC(=O)Nc1n[nH]c2c1CN(C(=O)C1CCN(C)CC1)C2(C)C [PHA-793887]; conditions: top dose 10.24 µM
Description: as §1

[7] = compound: C[C@@H](N)c1ccc(C(=O)Nc2ccnc3[nH]ccc23)cc1 [Y-39983]; conditions: top dose 20 µM; top dose inferred
Description: as §1

[8] = screen: GDSC drug entry 1371, top dose inferred

Row | Cell Line | AUC [1] | IC50 [1] | AUC ([2]; screen: GDSC drug entry 1036) | IC50 ([2]; screen: GDSC drug entry 1036) | AUC [2, 8] | IC50 [2, 8] | AUC [3] | IC50 [3] | AUC [4] | IC50 [4] | AUC [5] | IC50 [5] | AUC [6] | IC50 [6] | AUC [7] | IC50 [7]
1 | EW-13 (Ewing sarcoma, suspension) | 0.512 | 1.36 µM | 0.983 | > 10 µM | 0.969 | > 10 µM | 0.961 | > 20 µM | 0.98 | > 2 µM | 0.464 | 0.00157 µM | 0.708 | 2.66 µM | 0.583 | 2.17 µM
2 | EW-16 (Ewing sarcoma, adherent) | 0.672 | 3.87 µM | 0.919 | > 10 µM | 0.976 | > 10 µM | 0.844 | 15.2 µM | 0.819 | 1.2 µM | 0.412 | 0.00114 µM | 0.781 | 4.43 µM | 0.93 | > 20 µM
3 | EW-18 (Ewing sarcoma, suspension) | 0.53 | 1.52 µM | 0.882 | > 10 µM | 0.949 | > 10 µM | 0.95 | > 20 µM | 0.976 | > 2 µM | 0.556 | 0.00287 µM | 0.598 | 1.21 µM | 0.891 | > 20 µM
4 | EW-24 (Ewing sarcoma, semi-adherent) | 0.892 | 18.7 µM | 0.983 | > 10 µM | 0.989 | > 10 µM | 0.957 | > 20 µM | 0.766 | 0.651 µM | 0.935 | > 0.032 µM | 0.99 | > 10.2 µM | 0.982 | > 20 µM
5 | Farage (B-cell lymphoma, suspension) | 0.453 | 0.954 µM | 0.924 | > 10 µM | 0.99 | > 10 µM | 0.919 | > 20 µM | 0.819 | 0.883 µM | 0.606 | 0.00368 µM | 0.479 | 0.566 µM | 0.476 | 1.09 µM
6 | GB-1 (glioma, adherent) | 0.674 | 4.2 µM | 0.93 | > 10 µM | 0.849 | 9.66 µM | 0.977 | > 20 µM | 0.85 | 1.95 µM | 0.22 | 0.000255 µM | 0.973 | > 10.2 µM | 0.856 | > 20 µM
7 | GCIY (stomach, adherent) | 0.922 | > 20 µM | 0.983 | > 10 µM |  |  | 0.835 | 15.6 µM | 0.866 | > 2 µM | 0.639 | 0.00512 µM | 0.961 | > 10.2 µM | 0.981 | > 20 µM
8 | GDM-1 (acute myeloid leukaemia, suspension) | 0.245 | 0.239 µM | 0.976 | > 10 µM | 0.977 | > 10 µM | 0.931 | > 20 µM | 0.676 | 0.378 µM | 0.624 |  | 0.719 | 2.58 µM | 0.437 | 0.848 µM
9 | GI-1 (glioma, adherent) | 0.842 | 13.2 µM | 0.976 | > 10 µM | 0.866 | 8.35 µM | 0.97 | > 20 µM | 0.854 | 1.48 µM | 0.519 | 0.00225 µM | 0.88 | 9.81 µM | 0.777 | 7.72 µM
10 | GI-ME-N (neuroblastoma, adherent) | 0.714 | 6.35 µM | 0.961 | > 10 µM | 0.946 | > 10 µM | 0.519 | 1.44 µM | 0.958 | > 2 µM | 0.63 | 0.0052 µM | 0.617 | 1.51 µM | 0.494 | 1.2 µM
11 | GR-ST (lymphoblastic leukaemia, suspension) | 0.765 | 8.86 µM | 0.864 | > 10 µM | 0.909 | > 10 µM | 0.438 | 0.816 µM | 0.975 | > 2 µM | 0.616 | 0.00446 µM | 0.457 | 0.478 µM | 0.967 | > 20 µM
12 | GRANTA-519 (B-cell lymphoma, suspension) | 0.909 | > 20 µM | 0.989 | > 10 µM | 0.977 | > 10 µM | 0.979 | > 20 µM | 0.988 | > 2 µM | 0.808 | 0.0146 µM | 0.816 | 4.97 µM | 0.979 | > 20 µM
13 | H9 (lymphoid neoplasm, suspension) | 0.431 | 0.839 µM | 0.992 | > 10 µM | 0.969 | > 10 µM | 0.696 | 3.95 µM | 0.983 | > 2 µM | 0.641 | 0.00453 µM | 0.884 | 7.67 µM | 0.928 | > 20 µM
14 | H-EMC-SS (chondrosarcoma, adherent) | 0.58 | 2.22 µM | 0.981 | > 10 µM | 0.979 | > 10 µM | 0.981 | > 20 µM | 0.977 | > 2 µM | 0.947 | > 0.032 µM | 0.884 | > 10.2 µM | 0.927 | > 20 µM
15 | HAL-01 (lymphoblastic leukaemia, suspension) | 0.432 | 0.834 µM | 0.943 | > 10 µM | 0.972 | > 10 µM | 0.728 | 5.08 µM | 0.968 | > 2 µM | 0.66 | 0.00524 µM | 0.873 | 7.94 µM | 0.974 | > 20 µM
16 | HC-1 (hairy cell leukaemia, suspension) | 0.468 | 1.03 µM | 0.977 | > 10 µM | 0.949 | > 10 µM | 0.74 | 5.86 µM | 0.976 | > 2 µM | 0.601 | 0.00375 µM | 0.39 | 0.324 µM | 0.933 | > 20 µM
17 | HCC1187 (breast, suspension) | 0.815 | 10.4 µM | 0.987 | > 10 µM | 0.988 | > 10 µM | 0.907 | > 20 µM | 0.984 | > 2 µM | 0.788 | 0.0133 µM | 0.58 | 1.05 µM | 0.88 | 18.9 µM
18 | HCC1500 (breast, adherent) | 0.944 | > 20 µM | 0.98 | > 10 µM | 0.985 | > 10 µM | 0.957 | > 20 µM | 0.985 | > 2 µM | 0.964 | > 0.032 µM | 0.911 | > 10.2 µM | 0.981 | > 20 µM
19 | HCC2157 (breast, suspension) | 0.987 | > 20 µM | 0.984 | > 10 µM | 0.983 | > 10 µM | 0.959 | > 20 µM | 0.983 | > 2 µM | 0.464 | 0.00159 µM | 0.694 | 2.31 µM | 0.987 | > 20 µM
20 | HCC2218 (breast, suspension) | 0.963 | > 20 µM | 0.96 | > 10 µM | 0.97 | > 10 µM | 0.967 | > 20 µM | 0.949 | > 2 µM | 0.76 | 0.014 µM | 0.652 | 1.89 µM | 0.968 | > 20 µM
21 | HD-MY-Z (Hodgkin lymphoma, adherent) | 0.75 | 6.59 µM | 0.968 | > 10 µM | 0.932 | > 10 µM | 0.833 | 13 µM | 0.978 | > 2 µM | 0.819 | 0.0183 µM | 0.514 | 0.699 µM | 0.906 | > 20 µM
22 | HDLM-2 (Hodgkin lymphoma, suspension) | 0.986 | > 20 µM | 0.942 | > 10 µM | 0.958 | > 10 µM | 0.971 | > 20 µM | 0.983 | > 2 µM | 0.823 | 0.0186 µM | 0.966 | > 10.2 µM | 0.989 | > 20 µM
23 | HL-60 (acute myeloid leukaemia, suspension) | 0.727 | 5.1 µM | 0.989 | > 10 µM | 0.978 | > 10 µM | 0.983 | > 20 µM | 0.99 | > 2 µM | 0.512 | 0.00214 µM | 0.672 | 1.82 µM | 0.908 | > 20 µM
24 | HOP-62 (lung adenocarcinoma, adherent) | 0.932 | > 20 µM | 0.981 | > 10 µM | 0.972 | > 10 µM | 0.728 | 5.54 µM | 0.871 | 1.87 µM | 0.384 | 0.000961 µM | 0.615 | 1.32 µM | 0.924 | > 20 µM
25 | HSC-39 (stomach, suspension) | 0.986 | > 20 µM | 0.776 | 3.44 µM | 0.939 | > 10 µM | 0.926 | > 20 µM | 0.991 | > 2 µM | 0.935 | > 0.032 µM | 0.862 | 6.87 µM | 0.985 | > 20 µM
26 | HT (B-cell lymphoma, suspension) | 0.912 | > 20 µM | 0.956 | > 10 µM | 0.883 | 9.16 µM | 0.926 | > 20 µM | 0.99 | > 2 µM | 0.814 | 0.0156 µM | 0.847 | 6.64 µM | 0.827 | 10.9 µM
27 | HUTU-80 (digestive system, adherent) | 0.812 | 8.5 µM | 0.991 | > 10 µM | 0.986 | > 10 µM | 0.845 | 10.9 µM | 0.936 | > 2 µM | 0.231 | 0.000397 µM | 0.605 | 1.18 µM | 0.928 | > 20 µM
28 | Hs-445 (Hodgkin lymphoma, suspension) | 0.594 | 2.22 µM |  |  | 0.975 | > 10 µM | 0.72 | 4.96 µM | 0.984 | > 2 µM | 0.614 | 0.00401 µM | 0.649 | 1.6 µM | 0.912 | > 20 µM
